Records with an inconclusive call do not appear. Some entries of the source have several records that differ or are many. This is not the full list of results. An entry can have further records. The records of an entry repeat one measurement (runs, samples, wells, individuals or studies).
Test system: nude mice, LX-1 lung xenograft intrarenal, tumor weight T/C
Experiment: NCI In Vivo Anticancer Drug Screen. Data for tumor model Human Lung LX-1 Xenograft (intrarenal inoculation) in NU/NU Swiss (nude) mice
Conditions: endpoint: mean tumor weight change, higher = larger tumour
In short: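 In vivo, transplantable tumor; compound vs vehicle arms; tumor size measured; value = T/C.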

[1] = dose: 4.0 mg/kg/injection, schedule: Q01DX010 (sc), vehicle: saline
[2] = dose: 8.0 mg/kg/injection, schedule: Q01DX010 (sc), vehicle: saline

## O=NN(CCCl)C(=O)NCCO
dose: 6.25 mg/kg/injection, schedule: Q04DX003 (sc), vehicle: water
  T/C: 37 % of control and 159 % of control
dose: 12.5 mg/kg/injection, schedule: Q04DX003 (sc), vehicle: water
  T/C: 3 % of control and 56 % of control
dose: 25.0 mg/kg/injection, schedule: Q04DX003 (sc), vehicle: water
  T/C: -53 % of control and 31 % of control

## O=NN(CCCl)C(=O)NC1CCCCC1
dose: 16.0 mg/kg/injection, schedule: Q04DX003 (sc), vehicle: carboxymethylcellulose (CMC)
  T/C: 64 % of control and 109 % of control
dose: 25.0 mg/kg/injection, schedule: Q04DX003 (sc), vehicle: Klucel (hydroxypropylcellulose) (HPC)
  T/C: 16 % of control and 57 % of control
dose: 100.0 mg/kg/injection, schedule: Q04DX003 (sc), vehicle: Klucel (hydroxypropylcellulose) (HPC)
  T/C: -100 % of control and 63 % of control

## Nc1nc([Se])c2ncn(C3OC(CO)C(O)C3O)c2n1 (stereo unspecified)
dose: 2.0 mg/kg/injection, schedule: Q01DX010 (sc), vehicle: saline
  T/C: 65 % of control, 221 % of control, 283 % of control
[1]
  T/C: 93 % of control and 122 % of control
[2]
  T/C: 73 % of control, 159 % of control, 224 % of control

## COC12C(COC(N)=O)C3=C(C(=O)C(C)=C(N)C3=O)N1CC1C2N1C (stereo unspecified)
[1]
  T/C: 17 % of control and 43 % of control

## CC12CCC3C(CCC4CC(OC(=O)Cc5ccc(N(CCCl)CCCl)cc5)CCC43C)C1CCC(=O)N2 (stereo unspecified)
dose: 50.0 mg/kg/injection, schedule: Q04DX003 (sc), vehicle: saline with Tween-80
  T/C: 36 % of control and 87 % of control
dose: 100.0 mg/kg/injection, schedule: Q04DX003 (sc), vehicle: saline with Tween-80
  T/C: 37 % of control and 84 % of control

## CO[C@H](C(=O)[C@@H](O)[C@@H](C)O)[C@@H]1Cc2cc3cc(OC4CC(OC5CC(O)C(O)C(C)O5)C(O)C(C)O4)c(C)c(O)c3c(O)c2C(=O)[C@H]1OC1CC(OC2CC(OC3CC(C)(O)C(O)C(C)O3)C(O)C(C)O2)C(O)C(C)O1 (stereo partly specified)
dose: 0.5 mg/kg/injection, schedule: Q01DX010 (sc), vehicle: saline
  T/C: 77 % of control and 113 % of control
dose: 1.0 mg/kg/injection, schedule: Q01DX010 (sc), vehicle: saline
  T/C: -92 % of control and 8 % of control

## CC1(C)N=C(N)N=C(N)N1c1ccc(F)c(C(F)(F)F)c1
dose: 6.25 mg/kg/injection, schedule: Q01DX010 (sc), vehicle: saline
  T/C: 36 % of control and 187 % of control

## CCNC(=O)OCc1c(COC(=O)NCC)c(-c2ccc(Cl)c(Cl)c2)n2c1CCC2
dose: 25.0 mg/kg/injection, schedule: Q01DX010 (sc), vehicle: saline with Tween-80
  T/C: 26 % of control, 81 % of control, 91 % of control
dose: 50.0 mg/kg/injection, schedule: Q01DX010 (sc), vehicle: saline with Tween-80
  T/C: 20 % of control, 116 % of control, 196 % of control

## CCSC(=O)N1c2ccc(OC)cc2C=CC1C#N (stereo unspecified)
dose: 600.0 mg/kg/injection, schedule: Q04DX003 (sc), vehicle: saline with Tween-80
  T/C: 51 % of control, 65 % of control, 153 % of control
dose: 1200.0 mg/kg/injection, schedule: Q04DX003 (sc), vehicle: saline with Tween-80
  T/C: 29 % of control, 41 % of control, 58 % of control

## Cc1c2ccncc2c(C)c2c1[nH]c1ccccc12
dose: 25.0 mg/kg/injection, schedule: Q01DX010 (sc), vehicle: saline
  T/C: 54 % of control and 105 % of control

## O=C(O)CCCc1ccc(N(CCCl)CCCl)cc1
dose: 4.0 mg/kg/injection, schedule: Q01DX010 (sc), vehicle: saline with Tween-80
  T/C: 25 % of control and 155 % of control
dose: 8.0 mg/kg/injection, schedule: Q01DX010 (sc), vehicle: saline with Tween-80
  T/C: 5 % of control and 49 % of control

## COc1cccc2c1C(=O)c1c(O)c3c(c(O)c1C2=O)C[C@@](O)(C(=O)CO)C[C@@H]3OC1CC(N)C(O)C(C)O1 (stereo partly specified)
dose: 0.25 mg/kg/injection, schedule: Q01DX010 (ip), vehicle: water
  T/C: 87 % of control and 153 % of control
dose: 8.0 mg/kg/injection, schedule: Q04DX003 (sc), vehicle: water
  T/C: 42 % of control, 55 % of control, 107 % of control

## CC(=O)NCCCCCCNC(C)=O
dose: 1600.0 mg/kg/injection, schedule: Q01DX010 (sc), vehicle: saline
  T/C: 49 % of control and 75 % of control

## Cc1c(N)nc(C(CC(N)=O)NCC(N)C(N)=O)nc1C(=O)NC(C(=O)NC(C)C(O)C(C)C(=O)NC(C(=O)NCCc1nc(-c2nc(C(=O)NCCCNC(C)c3ccccc3)cs2)cs1)C(C)O)C(OC1OC(CO)C(O)C(O)C1OC1OC(CO)C(O)C(OC(N)=O)C1O)c1cnc[nH]1 (stereo unspecified)
[2]
  T/C: 11 % of control and 48 % of control

Reference: PubChem BioAssay AID264 (DTP/NCI, 2004)
